Laboratory results from ChEMBL document CHEMBL4831512 (J Med Chem, 2021).
In brackets after ≈: the same amount, converted by molar mass.

Assays:
[1] = biological target: T1, Phosphatidylinositol 4,5-bisphosphate 3-kinase catalytic subunit gamma isoform (Homo sapiens, UniProt P48736)
[2] = biological target: T1, Phosphatidylinositol 4,5-bisphosphate 3-kinase catalytic subunit gamma isoform; remark: listed apart in the source
Blood = test: tissue or blood; format: functional, tissue-based; details: Homo sapiens
in vivo [3] = details: Sprague-Dawley, rat, po, 10 mg/kg
in vivo [4] = details: Sprague-Dawley, rat, iv, 1 mg/kg
in vivo [5] = details: Sprague-Dawley, rat, po, 100 mg/kg
in vivo [6] = details: Sprague-Dawley, rat, po, 10 mg/kg; remark: listed apart in the source
in vivo [7] = details: Sprague-Dawley, rat, po, 100 mg/kg; remark: listed apart in the source
in vivo [8] = details: Sprague-Dawley, rat, po, 10 mg/kg; remark: listed apart in the source
in vivo [9] = details: Sprague-Dawley, rat, po, 100 mg/kg; remark: listed apart in the source
in vivo [10] = details: Sprague-Dawley, rat, po, 300 mg/kg
in vivo [11] = details: Sprague-Dawley, rat, po, 300 mg/kg; remark: listed apart in the source
in vivo [12] = details: Sprague-Dawley, rat, po, 300 mg/kg; remark: listed apart in the source
in vitro [13] = details: PAMPA
in vitro [14] = details: rat, microsomes
physchem [15] = details: buffer, pH 6.8
physchem [16] = details: simulated gi fluid, pH 1
physchem [17] = details: buffer, pH 6.8; remark: listed apart in the source
physchem [18] = details: simulated gi fluid

T1 sequence (P48736 whole entry, canonical isoform): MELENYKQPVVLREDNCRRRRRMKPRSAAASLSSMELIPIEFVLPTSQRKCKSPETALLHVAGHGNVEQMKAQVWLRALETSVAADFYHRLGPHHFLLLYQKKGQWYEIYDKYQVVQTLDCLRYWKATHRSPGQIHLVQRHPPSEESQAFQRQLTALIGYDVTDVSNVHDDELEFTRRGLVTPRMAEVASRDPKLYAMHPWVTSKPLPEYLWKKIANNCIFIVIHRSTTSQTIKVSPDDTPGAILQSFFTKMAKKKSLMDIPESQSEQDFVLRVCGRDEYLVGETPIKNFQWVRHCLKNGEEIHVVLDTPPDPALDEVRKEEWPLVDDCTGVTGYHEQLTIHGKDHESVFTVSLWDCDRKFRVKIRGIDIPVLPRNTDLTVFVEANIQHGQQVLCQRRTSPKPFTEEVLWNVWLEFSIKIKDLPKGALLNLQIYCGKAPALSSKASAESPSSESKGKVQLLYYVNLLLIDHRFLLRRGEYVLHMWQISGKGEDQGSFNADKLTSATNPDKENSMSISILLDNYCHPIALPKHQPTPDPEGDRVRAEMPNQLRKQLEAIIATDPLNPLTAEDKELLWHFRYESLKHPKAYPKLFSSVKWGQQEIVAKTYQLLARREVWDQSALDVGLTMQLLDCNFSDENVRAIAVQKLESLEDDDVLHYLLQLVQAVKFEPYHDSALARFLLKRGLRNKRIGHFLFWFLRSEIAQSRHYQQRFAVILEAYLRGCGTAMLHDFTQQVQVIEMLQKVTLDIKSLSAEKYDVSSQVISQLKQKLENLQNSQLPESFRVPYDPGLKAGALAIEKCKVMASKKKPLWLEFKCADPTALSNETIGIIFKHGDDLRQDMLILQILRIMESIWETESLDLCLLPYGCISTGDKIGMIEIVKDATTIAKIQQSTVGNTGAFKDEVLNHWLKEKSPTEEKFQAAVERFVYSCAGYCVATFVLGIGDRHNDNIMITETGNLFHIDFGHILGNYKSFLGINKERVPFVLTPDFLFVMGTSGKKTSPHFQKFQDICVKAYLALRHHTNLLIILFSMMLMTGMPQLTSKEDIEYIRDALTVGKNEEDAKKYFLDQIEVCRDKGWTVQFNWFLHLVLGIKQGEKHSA

Cc1ccc(S(=O)(=O)NCC(C)(C)O)cc1-c1cnc(N)c(-n2cncn2)n1
IC50 [1]: 36 nM | IC50 [2]: 350 nM

Cc1ccn(-c2nc(-c3cc(S(=O)(=O)NCC(C)(C)O)ccc3C)cnc2N)n1
IC50 [1]: 36 nM | IC50 [2]: 240 nM

Cc1ccc(S(=O)(=O)NCC(C)(C)O)cc1-c1cnc(N)c(-c2cn(C)nc2C)n1
IC50 [1]: 28 nM | IC50 [2]: 61 nM

Cc1ccc(S(=O)(=O)NCC(C)(C)O)cc1-c1cnc(N)c(-c2cnn(C)c2)c1
IC50 [1]: 88 nM | IC50 [2]: 400 nM

Cc1cc(-c2cc(-c3cc(S(=O)(=O)NCC(C)(C)O)ccc3C)cnc2N)on1
IC50 (Blood): 804 nM | Cmax (in vivo [3]): 1.49 µM | clearance (in vivo [4]): 20 mL/min/kg | Cmax (in vivo [5]): 7.18 µM | AUC(0-t) at 24 h (in vivo [6]): 9.35 µM·h | AUC(0-t) at 24 h (in vivo [7]): 79.9 µM·h | bioavailability (in vivo [8]): 44% | bioavailability (in vivo [9]): 38% | Cmax (in vivo [10]): 9.54 µM | AUC(0-t) at 24 h (in vivo [11]): 124 µM·h | bioavailability (in vivo [12]): 20% | Fa at 16 h, 500 µM (in vitro [13]): 41% | microsomal CLint at 0.5 h (in vitro [14]): 46 µL/min/mg | solubility thermodynamic (physchem [15]): 360 µg/mL (≈ 864 µM) | solubility thermodynamic (physchem [16]): 528 µg/mL (≈ 1270 µM) | solubility thermodynamic (physchem [17]): 190 µg/mL (≈ 456 µM) | solubility thermodynamic (physchem [18]): 626 µg/mL (≈ 1500 µM)

Cc1ccc(S(=O)(=O)NCC(C)(C)O)cc1-c1cnc(N)c(-c2cnn(C)n2)n1
IC50 [1]: 25 nM | IC50 [2]: 140 nM

Cc1ccc(S(=O)(=O)N[C@H]2CC[C@H](O)CC2)cc1-c1cnc(N)c(C(=O)C2CC2)n1
IC50 [2]: 15 nM

CCn1nnc(CCNC(=O)Nc2nc(C)c(-c3ccc(S(C)(=O)=O)c(F)c3)s2)n1
IC50 [1]: 170 nM | IC50 [2]: 810 nM

Cc1ccc(S(=O)(=O)NCC(C)(C)O)cc1-c1cnc(N)c(-c2cn(C)nc2C)c1
IC50 [1]: 330 nM

CNC(=O)c1nc(-c2ccc(Cl)c(S(=O)(=O)Nc3ccc(F)c(F)c3)c2)cnc1N
IC50 [1]: 110 nM | IC50 [2]: 352 nM
